Some of the results follow.

The record followed here is a collection of fitness landscapes (doi:10.1126/science.1257360).

First the molecules themselves.
B1: PhoQ; a variant is named by its letters at X, in order, P23837 (parent)
chain: MKKLLRLFFPLSLRVRFLLATAAVVLVLSLAYGMVALIGYSVSFDKTTFRLLRGESNLFYTLAKWENNKLHVELPENIDKQSPTMTLIYDENGQLLWAQRDVPWLMKMIQPDWLKSNGFHEIEADVNDTSLLLSGDHSIQQQLQEVREDDDDAEMTHSVAVNVYPATSRMPKLTIVVVDTIPVELKSSYMVWSWFIYVLSANLLLVIPLLWVAAWWSLRPIEALAKEVRELEEHNRELLNPATTRELTSLVRNLNRLLKSERERYDKYRTTLTDLTHSLKTPLXXLQXXLRSLRSEKMSVSDAEPVMLEQISRISQQIGYYLHRASMRGGTLLSRELHPVAPLLDNLTSALNKVYQRKGVNISLDISPEISFVGEQNDFVEVMGNVLDNACKYCLEFVEISARQTDEHLYIVVEDDGPGIPLSKREVIFDRGQRVDTLRPGQGVGLAVAREITEQYEGKIVAGESMLGGARMEVIFGRQHSAPKDE

This assay covers variants of B1. The experiment in a line: enrichment ratio after two sorts for PhoP signalling (ratio (wild type AVST 3.29)); higher = more functional. Particulars: with PhoP (E. coli).
Consider KGFK, for which the enrichment ratio was ≤ 0.25.

On to GKGK, for which the enrichment ratio was ≤ 0.25.

Regarding MHGI, the enrichment ratio was ≤ 0.25.

As to TRKE, the enrichment ratio was ≤ 0.25.

Take QHTF: the enrichment ratio is ≤ 0.25.

Take MDAV: the enrichment ratio amounted to 1.54.

In the case of GHVL, the enrichment ratio was ≤ 0.25.

CLYK: the enrichment ratio is ≤ 0.25.

For WMFK, the enrichment ratio is ≤ 0.25.

With IVVN, the enrichment ratio is ≤ 0.25.

As for GIAP, the enrichment ratio is ≤ 0.25.

As to NEDC, the enrichment ratio was ≤ 0.25.

For the variant ESQQ, the enrichment ratio is ≤ 0.25.

As for TVIP, the enrichment ratio was ≤ 0.25.

Take TNPM: the enrichment ratio is ≤ 0.25.

As to DPLN, the enrichment ratio is ≤ 0.25.

On to PPMT, for which the enrichment ratio was ≤ 0.25.

MIRQ: the enrichment ratio is ≤ 0.25.

For the variant NRWR, the enrichment ratio was ≤ 0.25.

On to EFNT, for which the enrichment ratio is ≤ 0.25.

Turning to AQER, the enrichment ratio was ≤ 0.25.

Consider TWEN, for which the enrichment ratio is ≤ 0.25.

As to DSTI, the enrichment ratio is ≤ 0.25.

With LDCY, the enrichment ratio is ≤ 0.25.

Take WNRL: the enrichment ratio is ≤ 0.25.

As to FKCF, the enrichment ratio was ≤ 0.25.

Take HVLF: the enrichment ratio is ≤ 0.25.

As to YEQK, the enrichment ratio is ≤ 0.25.

MKTW: the enrichment ratio was ≤ 0.25.

With LGLQ, the enrichment ratio is ≤ 0.25.

With HVHK, the enrichment ratio is ≤ 0.25.

On to ACQS, for which the enrichment ratio was 6.63.

Take KHLF: the enrichment ratio is ≤ 0.25.

Consider GHSI, for which the enrichment ratio is ≤ 0.25.

On to GTKE, for which the enrichment ratio is ≤ 0.25.

For MFHW, the enrichment ratio is ≤ 0.25.

Consider IWWC, for which the enrichment ratio is ≤ 0.25.

Regarding GAPS, the enrichment ratio is ≤ 0.25.

On to AHRC, for which the enrichment ratio is ≤ 0.25.

Take AWPF: the enrichment ratio was ≤ 0.25.

As to FTQC, the enrichment ratio is ≤ 0.25.

For PAPH, the enrichment ratio was ≤ 0.25.

In the case of HFAA, the enrichment ratio is ≤ 0.25.

In the case of LCKR, the enrichment ratio was ≤ 0.25.

On to LVKR, for which the enrichment ratio is ≤ 0.25.

As to YYFI, the enrichment ratio is ≤ 0.25.

CVFT: the enrichment ratio was ≤ 0.25.

As to PNNA, the enrichment ratio is ≤ 0.25.

In the case of GGRY, the enrichment ratio was ≤ 0.25.

Turning to RGKY, the enrichment ratio is ≤ 0.25.

For KTKR, the enrichment ratio is ≤ 0.25.

As for YPLR, the enrichment ratio was ≤ 0.25.

As for WDTW, the enrichment ratio is ≤ 0.25.

Regarding AFWF, the enrichment ratio is ≤ 0.25.

For RVDS, the enrichment ratio was ≤ 0.25.

Regarding EVQD, the enrichment ratio was ≤ 0.25.

In the case of RNLW, the enrichment ratio was 0.862.

On to DNHR, for which the enrichment ratio is ≤ 0.25.

For the variant RTTH, the enrichment ratio is ≤ 0.25.

Take WFRP: the enrichment ratio is ≤ 0.25.

Consider VNHQ, for which the enrichment ratio is ≤ 0.25.

For the variant EQYV, the enrichment ratio was ≤ 0.25.

Turning to RVWK, the enrichment ratio is ≤ 0.25.

Consider DWIV, for which the enrichment ratio was ≤ 0.25.

For the variant YGPM, the enrichment ratio is ≤ 0.25.

DAHA: the enrichment ratio is ≤ 0.25.

With LQSL, the enrichment ratio is ≤ 0.25.

Regarding YLCP, the enrichment ratio was ≤ 0.25.

Take YLEP: the enrichment ratio is ≤ 0.25.

PYIE: the enrichment ratio was ≤ 0.25.

With INIQ, the enrichment ratio is ≤ 0.25.

On to QNMN, for which the enrichment ratio is ≤ 0.25.

With WHLF, the enrichment ratio was ≤ 0.25.

As for LIDI, the enrichment ratio was ≤ 0.25.

For the variant LPSD, the enrichment ratio is ≤ 0.25.

For FHLR, the enrichment ratio is ≤ 0.25.

Regarding KKTM, the enrichment ratio was ≤ 0.25.

For the variant IEVW, the enrichment ratio is ≤ 0.25.

As to NRNK, the enrichment ratio was ≤ 0.25.

On to RPPM, for which the enrichment ratio is ≤ 0.25.

For the variant ASEN, the enrichment ratio is ≤ 0.25.

LYSI: the enrichment ratio is ≤ 0.25.

For SQMH, the enrichment ratio was found to be 2.58.

With ADMV, the enrichment ratio is 35.3.

Regarding NFVY, the enrichment ratio is ≤ 0.25.

Turning to FYEK, the enrichment ratio is ≤ 0.25.

As to YIKM, the enrichment ratio was ≤ 0.25.

For QKGC, the enrichment ratio is ≤ 0.25.

Turning to FYYL, the enrichment ratio was ≤ 0.25.

For FSQK, the enrichment ratio was 2.06.

LHKN: the enrichment ratio was ≤ 0.25.

On to KTRC, for which the enrichment ratio is ≤ 0.25.

Turning to PESK, the enrichment ratio was ≤ 0.25.

Regarding LKMN, the enrichment ratio is ≤ 0.25.

As for EDQR, the enrichment ratio was ≤ 0.25.

Turning to QEMG, the enrichment ratio was ≤ 0.25.

Consider KPSM, for which the enrichment ratio is ≤ 0.25.

On to WEWF, for which the enrichment ratio is ≤ 0.25.

On to SPVV, for which the enrichment ratio is ≤ 0.25.

For the variant WCTG, the enrichment ratio was ≤ 0.25.

As to GIIH, the enrichment ratio is 9.22.

As to KFGT, the enrichment ratio is ≤ 0.25.

CHTM: the enrichment ratio was ≤ 0.25.

For the variant ESWH, the enrichment ratio is ≤ 0.25.

Take NCIP: the enrichment ratio was ≤ 0.25.

SPWY: the enrichment ratio was ≤ 0.25.

In the case of PAHK, the enrichment ratio was ≤ 0.25.

As for IGHK, the enrichment ratio was ≤ 0.25.

Consider WRYF, for which the enrichment ratio was ≤ 0.25.

As to AWNC, the enrichment ratio was ≤ 0.25.

On to EVSE, for which the enrichment ratio is ≤ 0.25.

Take PEED: the enrichment ratio was ≤ 0.25.

Consider KFMG, for which the enrichment ratio is ≤ 0.25.

With TTNW, the enrichment ratio is ≤ 0.25.

For TGTN, the enrichment ratio was 8.63.

As for SKLP, the enrichment ratio was ≤ 0.25.

Consider NDRY, for which the enrichment ratio is ≤ 0.25.

As for NWMN, the enrichment ratio is ≤ 0.25.

For IYMQ, the enrichment ratio is ≤ 0.25.

With GPFR, the enrichment ratio is ≤ 0.25.

In the case of QDQF, the enrichment ratio was ≤ 0.25.

Take ENRN: the enrichment ratio is ≤ 0.25.

ENSA: the enrichment ratio was ≤ 0.25.

Consider QTID, for which the enrichment ratio was ≤ 0.25.

Take QSYC: the enrichment ratio is 2.55.

On to DDWC, for which the enrichment ratio was ≤ 0.25.

For the variant RKRC, the enrichment ratio was ≤ 0.25.

As to FIWV, the enrichment ratio was ≤ 0.25.

As to TDQK, the enrichment ratio is ≤ 0.25.

YAFY: the enrichment ratio was ≤ 0.25.

On to RSTP, for which the enrichment ratio is ≤ 0.25.

Take YLEF: the enrichment ratio was ≤ 0.25.

With YCTH, the enrichment ratio was ≤ 0.25.

As for GFFL, the enrichment ratio was ≤ 0.25.

Turning to NKEV, the enrichment ratio was ≤ 0.25.

Regarding WAKI, the enrichment ratio is ≤ 0.25.

Consider PPHY, for which the enrichment ratio was ≤ 0.25.

For CITN, the enrichment ratio is ≤ 0.25.

Turning to YYAE, the enrichment ratio is ≤ 0.25.

Take SFPK: the enrichment ratio is ≤ 0.25.

On to RCKC, for which the enrichment ratio was ≤ 0.25.

RDTW: the enrichment ratio was ≤ 0.25.

QIVP: the enrichment ratio is ≤ 0.25.

As to VEPC, the enrichment ratio is ≤ 0.25.

GITY: the enrichment ratio turned out to be 0.69.

In the case of MDKL, the enrichment ratio is ≤ 0.25.

In the case of NDWL, the enrichment ratio was ≤ 0.25.

Regarding AEFR, the enrichment ratio was ≤ 0.25.

On to YQNK, for which the enrichment ratio is ≤ 0.25.

As for RNHA, the enrichment ratio is ≤ 0.25.

In the case of FPPV, the enrichment ratio was ≤ 0.25.

Turning to RYRM, the enrichment ratio is ≤ 0.25.

With VPWY, the enrichment ratio is ≤ 0.25.

APRS: the enrichment ratio was ≤ 0.25.

For KMSN, the enrichment ratio is ≤ 0.25.

On to AMKR, for which the enrichment ratio was ≤ 0.25.

On to CHFY, for which the enrichment ratio was ≤ 0.25.

As for VGQC, the enrichment ratio is ≤ 0.25.

As to YRVL, the enrichment ratio was ≤ 0.25.

For YGCD, the enrichment ratio was ≤ 0.25.

Consider KVQC, for which the enrichment ratio was ≤ 0.25.

In the case of KTYW, the enrichment ratio was ≤ 0.25.

As for GLCS, the enrichment ratio worked out at 4.59.

As for THHP, the enrichment ratio is ≤ 0.25.

For the variant ISDD, the enrichment ratio is ≤ 0.25.

As to VHYA, the enrichment ratio is ≤ 0.25.

As for WVYR, the enrichment ratio was ≤ 0.25.

On to HRGY, for which the enrichment ratio is ≤ 0.25.

VQRH: the enrichment ratio was ≤ 0.25.

Consider LAIH, for which the enrichment ratio is ≤ 0.25.

With SYDC, the enrichment ratio was ≤ 0.25.

Take LQIG: the enrichment ratio is ≤ 0.25.

On to HMCA, for which the enrichment ratio is ≤ 0.25.

As to QLYC, the enrichment ratio was ≤ 0.25.

Turning to QAAC, the enrichment ratio is ≤ 0.25.

Regarding DAMH, the enrichment ratio is ≤ 0.25.

As to YAFS, the enrichment ratio is ≤ 0.25.

With ESHC, the enrichment ratio is ≤ 0.25.

In the case of RHMG, the enrichment ratio was ≤ 0.25.

As for DGLS, the enrichment ratio was ≤ 0.25.

Turning to VDEV, the enrichment ratio was ≤ 0.25.

Turning to YLCM, the enrichment ratio was determined as 0.441.

Take HFHN: the enrichment ratio is ≤ 0.25.

With NFHE, the enrichment ratio is ≤ 0.25.

For the variant VSWA, the enrichment ratio is ≤ 0.25.

As to QVGH, the enrichment ratio worked out at 15.9.

Regarding LHDV, the enrichment ratio was ≤ 0.25.

On to DNCP, for which the enrichment ratio is ≤ 0.25.

Consider YTLC, for which the enrichment ratio was found to be 11.3.

Consider KPKN, for which the enrichment ratio was ≤ 0.25.

As to DTMY, the enrichment ratio is ≤ 0.25.

With FETY, the enrichment ratio is ≤ 0.25.

As for TNAG, the enrichment ratio is 5.74.

For the variant QHGV, the enrichment ratio was ≤ 0.25.

Regarding NRPI, the enrichment ratio is ≤ 0.25.
